This is one part of the list.
biological target: T1, MBP-FoxP1dN (Mus musculus, UniProt P58462 326-579); test: PD-seq (MBP pull-down with sequencing); 20 mM Tris-HCl pH 7.5, 100 mM NaCl, 1.5 mM MgCl2, 0.4 uM protein, 0.1 uM dsDNA library, 30 min, room temperature, amylose pull-down; high values mean tight binding; details: protein: recombinant; tags: His6-MBP; chain copies: 2; dsDNA, one strand shown
T1 sequence: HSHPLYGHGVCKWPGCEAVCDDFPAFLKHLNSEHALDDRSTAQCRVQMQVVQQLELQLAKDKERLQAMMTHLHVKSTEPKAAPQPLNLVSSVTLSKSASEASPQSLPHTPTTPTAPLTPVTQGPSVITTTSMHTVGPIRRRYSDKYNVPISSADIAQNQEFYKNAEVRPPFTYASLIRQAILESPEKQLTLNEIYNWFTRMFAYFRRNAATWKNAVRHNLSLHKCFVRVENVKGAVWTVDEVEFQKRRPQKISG
How it was run: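 Binding is reads-per-million enrichment of pull-down over input, with replicates pooled. It comes from 30 min room-temperature incubation in Tris pH 7.5 buffer with NaCl and MgCl2 of 0.4 µM His6-MBP-tagged, N-terminally truncated mouse FoxP3 or FoxP1 fragment from E. coli with 0.1 µM Klenow-filled degenerate double-stranded DNA library, followed by amylose resin capture, three washes and Illumina sequencing of the released DNA.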

Sequence	binding signal
GATGATTGTTCTCCCAGCTGATGAATTACCATTATCGAGTAAACAAATTTTCCTAATCTTTCTGTTCAAGCGCCATCTAC	1.06 RPM ratio (pull-down/input)
GATGATTGTTCTCCCAGCTGATGAATTTACCTTTTCGAGTAAACAAATTTTCCTAATCTTTCTGTTCAAGCGCCATCTAC	1.35 RPM ratio (pull-down/input)
GATGATTGTTCTCCCAGCTGATGAATTTCTGTAGTCGAGTAAACAAATTTTCCTAATCTTTCTGTTCAAGCGCCATCTAC	0.942 RPM ratio (pull-down/input)
GATGATTGTTCTCCCAGCTGATGAATTTCTCGCGTCGAGTAAACAAATTTTCCTAATCTTTCTGTTCAAGCGCCATCTAC	0.918 RPM ratio (pull-down/input)
GATGATTGTTCTCCCAGCTGATGAATTTTCATTATCGAGTAAACAAATTTTCCTAATCTTTCTGTTCAAGCGCCATCTAC	0.969 RPM ratio (pull-down/input)
GATGATTGTTCTCCCAGCTGATGAATTGGGACATTCGAGTAAACAAATTTTCCTAATCTTTCTGTTCAAGCGCCATCTAC	0.913 RPM ratio (pull-down/input)
GATGATTGTTCTCCCAGCTGATGAATTAGTCGAGTCGAGTAAACAAATTTTCCTAATCTTTCTGTTCAAGCGCCATCTAC	0.956 RPM ratio (pull-down/input)
GATGATTGTTCTCCCAGCTGATGAATTCCGCCTATCGAGTAAACAAATTTTCCTAATCTTTCTGTTCAAGCGCCATCTAC	0.791 RPM ratio (pull-down/input)
GATGATTGTTCTCCCAGCTGATGAATTGTTAGACTCGAGTAAACAAATTTTCCTAATCTTTCTGTTCAAGCGCCATCTAC	1.07 RPM ratio (pull-down/input)
GATGATTGTTCTCCCAGCTGATGAATTGAGAGCTTCGAGTAAACAAATTTTCCTAATCTTTCTGTTCAAGCGCCATCTAC	0.858 RPM ratio (pull-down/input)
GATGATTGTTCTCCCAGCTGATGAATTGAGAATATCGAGTAAACAAATTTTCCTAATCTTTCTGTTCAAGCGCCATCTAC	1.04 RPM ratio (pull-down/input)
GATGATTGTTCTCCCAGCTGATGAATTAGGTCCGTCGAGTAAACAAATTTTCCTAATCTTTCTGTTCAAGCGCCATCTAC	0.87 RPM ratio (pull-down/input)
GATGATTGTTCTCCCAGCTGATGAATTAGAGCTATCGAGTAAACAAATTTTCCTAATCTTTCTGTTCAAGCGCCATCTAC	0.956 RPM ratio (pull-down/input)
GATGATTGTTCTCCCAGCTGATGAATTCCCAGACTCGAGTAAACAAATTTTCCTAATCTTTCTGTTCAAGCGCCATCTAC	0.788 RPM ratio (pull-down/input)
GATGATTGTTCTCCCAGCTGATGAATTTCCAATCTCGAGTAAACAAATTTTCCTAATCTTTCTGTTCAAGCGCCATCTAC	0.867 RPM ratio (pull-down/input)
GATGATTGTTCTCCCAGCTGATGAATTCATGTCCTCGAGTAAACAAATTTTCCTAATCTTTCTGTTCAAGCGCCATCTAC	0.771 RPM ratio (pull-down/input)
GATGATTGTTCTCCCAGCTGATGAATTTGATCGTTCGAGTAAACAAATTTTCCTAATCTTTCTGTTCAAGCGCCATCTAC	0.901 RPM ratio (pull-down/input)
GATGATTGTTCTCCCAGCTGATGAATTAGACCTTTCGAGTAAACAAATTTTCCTAATCTTTCTGTTCAAGCGCCATCTAC	0.881 RPM ratio (pull-down/input)
GATGATTGTTCTCCCAGCTGATGAATTTTCCGCCTCGAGTAAACAAATTTTCCTAATCTTTCTGTTCAAGCGCCATCTAC	0.923 RPM ratio (pull-down/input)
GATGATTGTTCTCCCAGCTGATGAATTTAGACCGTCGAGTAAACAAATTTTCCTAATCTTTCTGTTCAAGCGCCATCTAC	0.941 RPM ratio (pull-down/input)
GATGATTGTTCTCCCAGCTGATGAATTATGGCTATCGAGTAAACAAATTTTCCTAATCTTTCTGTTCAAGCGCCATCTAC	0.962 RPM ratio (pull-down/input)

Sequence	binding signal
GATGATTGTTCTCCCAGCTGATGAATTCTGGATTTCGAGTAAACAAATTTTCCTAATCTTTCTGTTCAAGCGCCATCTAC	0.936 RPM ratio (pull-down/input)
GATGATTGTTCTCCCAGCTGATGAATTAACTACCTCGAGTAAACAAATTTTCCTAATCTTTCTGTTCAAGCGCCATCTAC	0.879 RPM ratio (pull-down/input)
GATGATTGTTCTCCCAGCTGATGAATTCGGAGTGTCGAGTAAACAAATTTTCCTAATCTTTCTGTTCAAGCGCCATCTAC	0.801 RPM ratio (pull-down/input)
GATGATTGTTCTCCCAGCTGATGAATTTCACACTTCGAGTAAACAAATTTTCCTAATCTTTCTGTTCAAGCGCCATCTAC	0.956 RPM ratio (pull-down/input)
GATGATTGTTCTCCCAGCTGATGAATTTCGCAAGTCGAGTAAACAAATTTTCCTAATCTTTCTGTTCAAGCGCCATCTAC	0.831 RPM ratio (pull-down/input)
GATGATTGTTCTCCCAGCTGATGAATTTATTGCATCGAGTAAACAAATTTTCCTAATCTTTCTGTTCAAGCGCCATCTAC	1.62 RPM ratio (pull-down/input)
GATGATTGTTCTCCCAGCTGATGAATTGATGGCGTCGAGTAAACAAATTTTCCTAATCTTTCTGTTCAAGCGCCATCTAC	1.01 RPM ratio (pull-down/input)
GATGATTGTTCTCCCAGCTGATGAATTTAGTTCCTCGAGTAAACAAATTTTCCTAATCTTTCTGTTCAAGCGCCATCTAC	0.864 RPM ratio (pull-down/input)
GATGATTGTTCTCCCAGCTGATGAATTCTGGGGCTCGAGTAAACAAATTTTCCTAATCTTTCTGTTCAAGCGCCATCTAC	0.742 RPM ratio (pull-down/input)
GATGATTGTTCTCCCAGCTGATGAATTGCGGACATCGAGTAAACAAATTTTCCTAATCTTTCTGTTCAAGCGCCATCTAC	1.1 RPM ratio (pull-down/input)
GATGATTGTTCTCCCAGCTGATGAATTTGTGCAATCGAGTAAACAAATTTTCCTAATCTTTCTGTTCAAGCGCCATCTAC	1.42 RPM ratio (pull-down/input)
GATGATTGTTCTCCCAGCTGATGAATTTCATCAATCGAGTAAACAAATTTTCCTAATCTTTCTGTTCAAGCGCCATCTAC	1.01 RPM ratio (pull-down/input)
GATGATTGTTCTCCCAGCTGATGAATTCTAGTCCTCGAGTAAACAAATTTTCCTAATCTTTCTGTTCAAGCGCCATCTAC	0.763 RPM ratio (pull-down/input)
GATGATTGTTCTCCCAGCTGATGAATTAGGCGCCTCGAGTAAACAAATTTTCCTAATCTTTCTGTTCAAGCGCCATCTAC	1.04 RPM ratio (pull-down/input)
GATGATTGTTCTCCCAGCTGATGAATTGCCGACTTCGAGTAAACAAATTTTCCTAATCTTTCTGTTCAAGCGCCATCTAC	0.874 RPM ratio (pull-down/input)
GATGATTGTTCTCCCAGCTGATGAATTTAGCAAGTCGAGTAAACAAATTTTCCTAATCTTTCTGTTCAAGCGCCATCTAC	0.913 RPM ratio (pull-down/input)
GATGATTGTTCTCCCAGCTGATGAATTTGTTACCTCGAGTAAACAAATTTTCCTAATCTTTCTGTTCAAGCGCCATCTAC	1.24 RPM ratio (pull-down/input)
GATGATTGTTCTCCCAGCTGATGAATTGCCGAATTCGAGTAAACAAATTTTCCTAATCTTTCTGTTCAAGCGCCATCTAC	1 RPM ratio (pull-down/input)
GATGATTGTTCTCCCAGCTGATGAATTCCGGTGTTCGAGTAAACAAATTTTCCTAATCTTTCTGTTCAAGCGCCATCTAC	0.893 RPM ratio (pull-down/input)
GATGATTGTTCTCCCAGCTGATGAATTAAGCACGTCGAGTAAACAAATTTTCCTAATCTTTCTGTTCAAGCGCCATCTAC	0.999 RPM ratio (pull-down/input)
GATGATTGTTCTCCCAGCTGATGAATTAGTGCACTCGAGTAAACAAATTTTCCTAATCTTTCTGTTCAAGCGCCATCTAC	1.02 RPM ratio (pull-down/input)

Sequence	binding signal
GATGATTGTTCTCCCAGCTGATGAATTTCCTGCGTCGAGTAAACAAATTTTCCTAATCTTTCTGTTCAAGCGCCATCTAC	0.938 RPM ratio (pull-down/input)
GATGATTGTTCTCCCAGCTGATGAATTGCGCATATCGAGTAAACAAATTTTCCTAATCTTTCTGTTCAAGCGCCATCTAC	1.2 RPM ratio (pull-down/input)
GATGATTGTTCTCCCAGCTGATGAATTTGAAGCGTCGAGTAAACAAATTTTCCTAATCTTTCTGTTCAAGCGCCATCTAC	0.859 RPM ratio (pull-down/input)
GATGATTGTTCTCCCAGCTGATGAATTGTGTGGGTCGAGTAAACAAATTTTCCTAATCTTTCTGTTCAAGCGCCATCTAC	1.02 RPM ratio (pull-down/input)
GATGATTGTTCTCCCAGCTGATGAATTGAGTGTTTCGAGTAAACAAATTTTCCTAATCTTTCTGTTCAAGCGCCATCTAC	1.02 RPM ratio (pull-down/input)
GATGATTGTTCTCCCAGCTGATGAATTTTTCAGTTCGAGTAAACAAATTTTCCTAATCTTTCTGTTCAAGCGCCATCTAC	0.943 RPM ratio (pull-down/input)
GATGATTGTTCTCCCAGCTGATGAATTATTGTGTTCGAGTAAACAAATTTTCCTAATCTTTCTGTTCAAGCGCCATCTAC	2.1 RPM ratio (pull-down/input)
GATGATTGTTCTCCCAGCTGATGAATTGCGCTATTCGAGTAAACAAATTTTCCTAATCTTTCTGTTCAAGCGCCATCTAC	1.18 RPM ratio (pull-down/input)
GATGATTGTTCTCCCAGCTGATGAATTTCACTTCTCGAGTAAACAAATTTTCCTAATCTTTCTGTTCAAGCGCCATCTAC	0.794 RPM ratio (pull-down/input)
GATGATTGTTCTCCCAGCTGATGAATTTACCACATCGAGTAAACAAATTTTCCTAATCTTTCTGTTCAAGCGCCATCTAC	1.51 RPM ratio (pull-down/input)
GATGATTGTTCTCCCAGCTGATGAATTATAAGCGTCGAGTAAACAAATTTTCCTAATCTTTCTGTTCAAGCGCCATCTAC	1.05 RPM ratio (pull-down/input)
GATGATTGTTCTCCCAGCTGATGAATTAGAGAGCTCGAGTAAACAAATTTTCCTAATCTTTCTGTTCAAGCGCCATCTAC	0.858 RPM ratio (pull-down/input)
GATGATTGTTCTCCCAGCTGATGAATTGGCAGAATCGAGTAAACAAATTTTCCTAATCTTTCTGTTCAAGCGCCATCTAC	0.88 RPM ratio (pull-down/input)
GATGATTGTTCTCCCAGCTGATGAATTGCCTCTATCGAGTAAACAAATTTTCCTAATCTTTCTGTTCAAGCGCCATCTAC	1.05 RPM ratio (pull-down/input)
GATGATTGTTCTCCCAGCTGATGAATTGGTTCCTTCGAGTAAACAAATTTTCCTAATCTTTCTGTTCAAGCGCCATCTAC	0.944 RPM ratio (pull-down/input)
GATGATTGTTCTCCCAGCTGATGAATTTAAATGCTCGAGTAAACAAATTTTCCTAATCTTTCTGTTCAAGCGCCATCTAC	1.3 RPM ratio (pull-down/input)
GATGATTGTTCTCCCAGCTGATGAATTTTTGCGATCGAGTAAACAAATTTTCCTAATCTTTCTGTTCAAGCGCCATCTAC	1.01 RPM ratio (pull-down/input)
GATGATTGTTCTCCCAGCTGATGAATTCGGGGGATCGAGTAAACAAATTTTCCTAATCTTTCTGTTCAAGCGCCATCTAC	0.802 RPM ratio (pull-down/input)
GATGATTGTTCTCCCAGCTGATGAATTGAACAACTCGAGTAAACAAATTTTCCTAATCTTTCTGTTCAAGCGCCATCTAC	0.949 RPM ratio (pull-down/input)
GATGATTGTTCTCCCAGCTGATGAATTAAACAGCTCGAGTAAACAAATTTTCCTAATCTTTCTGTTCAAGCGCCATCTAC	1.19 RPM ratio (pull-down/input)
GATGATTGTTCTCCCAGCTGATGAATTCCGCAGCTCGAGTAAACAAATTTTCCTAATCTTTCTGTTCAAGCGCCATCTAC	0.792 RPM ratio (pull-down/input)

From paper PMC12820563, “FoxP3 forms a head-to-head dimer in vivo and stabilizes its multimerization on adjacent microsatellites”
